Measurements as given in PMC5540273 (PLoS ONE, 2017).
For some of these results: This list holds what a sample rich in strong results left over. This is a selection; strong and weak results do not stand in their true shares.

Legend:
Settings in all cases: concentration: 1 μM,replicates: in singlicate; n = 1
CDK5 = system: CDK5
CDK7 = system: CDK7
CDK8 = system: CDK8
CDK9 = system: CDK9
CDKL1 = system: CDKL1
CDKL2 = system: CDKL2
CDKL3 = system: CDKL3
CDKL5 = system: CDKL5
CHEK1 = system: CHEK1
CHEK2 = system: CHEK2
CIT = system: CIT
CLK1 = system: CLK1
CLK2 = system: CLK2
CLK3 = system: CLK3
CLK4 = system: CLK4
CSF1R-autoinhibited = system: CSF1R-autoinhibited
CSF1R = system: CSF1R
CSK = system: CSK
CSNK1A1L = system: CSNK1A1L
CSNK1A1 = system: CSNK1A1
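Also: KINOMEscan kinase panel screen.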

SMILES | %Inh (CDK5) [%] | %Inh (CDK7) [%] | %Inh (CDK8) [%] | %Inh (CDK9) [%] | %Inh (CDKL1) [%] | %Inh (CDKL2) [%] | %Inh (CDKL3) [%] | %Inh (CDKL5) [%] | %Inh (CHEK1) [%] | %Inh (CHEK2) [%] | %Inh (CIT) [%] | %Inh (CLK1) [%] | %Inh (CLK2) [%] | %Inh (CLK3) [%] | %Inh (CLK4) [%] | %Inh (CSF1R-autoinhibited) [%] | %Inh (CSF1R) [%] | %Inh (CSK) [%] | %Inh (CSNK1A1L) [%] | %Inh (CSNK1A1) [%]
CSc1ccc(NC2=C(c3cccc(Cl)c3)C(=O)NC2=O)cc1 [SB-341528] | 0 | 0 | 0 | 0 | 13 | 16 | 0 | 0 | 0 | 0 | 0 | 6 | 0 | 0 | 15 | 0 | 8 | 0 | 0 | 23
COc1ccc(C2=C(Nc3cccc(Cl)c3)C(=O)NC2=O)cc1 [SB-326892] | 0 | 0 | 20 | 0 | 27 | 0 | 0 | 3 | 0 | 0 | 25 | 83 | 81 | 0 | 59 | 0 | 0 | 0 | 0 | 0
O=C1NC(=O)C(c2ccccc2)=C1Nc1cc(Cl)c(O)c(Cl)c1 [SB-390530] | 11 | 23 | 31 | 0 | 0 | 38 | 0 | 0 | 0 | 0 | 20 | 27 | 17 | 0 | 17 | 19 | 0 | 0 | 0 | 30
O=C1NC(=O)C(c2ccccc2Cl)=C1Nc1ccccc1 [SB-376715] | 0 | 38 | 22 | 0 | 0 | 19 | 0 | 0 | 0 | 4 | 3 | 3 | 73 | 0 | 12 | 16 | 0 | 4 | 0 | 0
O=C1NC(=O)C(c2ccc(Cl)cc2)=C1Nc1cccc(O)c1 [SB-333613] | 0 | 37 | 7 | 0 | 30 | 0 | 0 | 4 | 5 | 0 | 17 | 63 | 73 | 0 | 54 | 29 | 10 | 1 | 0 | 25
Cc1cc(C)cc(Oc2nccc(-c3c(-c4ccc(F)cc4)ncn3C3CCNCC3)n2)c1.O=C(O)C(F)(F)F.O=C(O)C(F)(F)F.O=C(O)C(F)(F)F [SB-284851] | 0 | 0 | 74 | 0 | 34 | 28 | 2 | 0 | 0 | 0 | 87 | 0 | 0 | 0 | 0 | 0 | 0 | 6 | 0 | 59
O=C1NC(=O)C(c2ccc(Cl)cc2)=C1Nc1ccc(O)c(Cl)c1 [SB-405367] | 31 | 11 | 0 | 0 | 37 | 0 | 0 | 5 | 26 | 1 | 10 | 76 | 64 | 11 | 45 | 0 | 6 | 0 | 5 | 0
O=C1NC(=O)C(c2ccccc2Cl)=C1Nc1cccc(C(=O)O)c1 [SB-390526] | 0 | 7 | 34 | 22 | 0 | 59 | 0 | 0 | 8 | 27 | 6 | 40 | 88 | 0 | 22 | 10 | 0 | 0 | 10 | 2
O=C1NC(=O)c2c1c(-c1ccccc1)cc1[nH]c3ccc(O)cc3c21 | 20 | 20 | 2 | 35 | 20 | 98.5 | 16 | 20 |  | 98.1 | 51 | 0 | 5 | 0 | 0 | 0 | 29 | 13 | 45 | 53
O=C1NC(=O)C(c2ccc(Cl)cc2)=C1Nc1cccc(C(=O)O)c1 [SB-360737] | 0 | 0 | 0 | 0 | 0 | 9 | 0 | 0 | 4 | 0 | 5 | 36 | 0 | 0 | 17 | 0 | 16 | 0 | 0 | 0
O=C1NC(=O)C(c2ccc(Cl)cc2)=C1Nc1ccccc1 [SB-317661] | 0 | 2 | 11 | 0 | 12 | 4 | 11 | 7 | 0 | 0 | 0 | 3 | 38 | 0 | 0 | 0 | 0 | 1 | 0 | 0
COc1cccc(C2=C(Nc3ccc(SC)cc3)C(=O)NC2=O)c1 [SB-331032] | 0 | 32 | 26 | 0 | 12 | 0 | 0 | 20 | 0 | 0 | 0 | 57 | 65 | 9 | 29 | 32 | 0 | 0 | 0 | 14
O=C(O)c1ccc(-c2nc(-c3ccc(F)cc3)c(-c3ccncc3)[nH]2)cc1 [SB-202620] | 7 | 21 | 0 | 7 | 37 | 5 | 12 | 0 | 17 | 9 | 42 | 16 | 0 | 0 | 13 | 12 | 20 | 0 | 0 | 69
O=C1NC(=O)C(c2ccccc2)=C1Nc1ccc(Cl)c(C(=O)O)c1 [SB-390532] | 0 | 0 | 7 | 0 | 0 | 0 | 0 | 0 | 0 | 0 | 24 | 0 | 0 | 1 | 0 | 22 | 0 | 0 | 0 | 0
CS(=O)(=O)c1ccccc1-c1nc(-c2ccc(F)cc2)c(-c2ccncc2)[nH]1 [SB-213663] | 0 | 27 | 43 | 2 | 40 | 44 | 0 | 6 | 0 | 100 | 97.2 | 0 | 0 | 0 | 8 | 38 | 3 | 0 | 12 | 76
Cc1ccc(C)c(Oc2nccc(-c3c(-c4ccc(F)cc4)ncn3C3CCNCC3)n2)c1.O=C(O)C(F)(F)F.O=C(O)C(F)(F)F.O=C(O)C(F)(F)F [SB-284852] | 0 | 0 | 52 | 0 | 54 | 37 | 0 | 0 | 0 | 0 | 93.7 | 4 | 0 | 1 | 0 | 0 | 0 | 0 | 37 | 86
